Measured values reported in PubChem BioAssay AID485344 (National Center for Advancing Translational Sciences (NCATS), 2010).
Values joined by “and” are separate entries in the source; they are usually repeats but may differ in a detail not shown here. Identical values can stand only once. Among all 340,000 compounds or so, about 6,900 (2%) were called active. No stated cut-off is given here; in the data, active means inhibition above about 30%; inactive means below that, where a call was filed. Only a part is listed here, and it is no random draw. Entries without a call were filed so in the source.

Biological target: D(2) dopamine receptor (Homo sapiens) (UniProt P14416)
UniProt P14416, sequence (P14416 whole entry, looked up): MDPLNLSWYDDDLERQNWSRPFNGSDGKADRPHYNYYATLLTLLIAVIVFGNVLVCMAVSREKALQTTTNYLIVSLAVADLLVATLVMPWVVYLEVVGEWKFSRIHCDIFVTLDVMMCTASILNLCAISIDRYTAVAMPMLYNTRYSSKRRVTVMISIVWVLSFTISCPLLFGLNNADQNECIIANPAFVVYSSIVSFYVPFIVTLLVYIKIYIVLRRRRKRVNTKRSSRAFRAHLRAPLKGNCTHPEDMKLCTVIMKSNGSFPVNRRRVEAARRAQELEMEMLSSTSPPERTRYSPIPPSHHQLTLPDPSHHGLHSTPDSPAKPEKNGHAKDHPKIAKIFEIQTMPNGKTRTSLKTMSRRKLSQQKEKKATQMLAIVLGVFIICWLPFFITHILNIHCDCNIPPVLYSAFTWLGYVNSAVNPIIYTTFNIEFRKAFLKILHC
Test: HTS Assay for Allosteric Antagonists of the Human D2 Dopamine Receptor: Primary Screen for Antagonists; further: 0% is about no effect
Conditions: HEK293 TREx D2 cells, calcium flux, dopamine EC80; at 10 µM; stronger effect = higher value
Procedure, shortened: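 Inhibition of EC80 dopamine-driven calcium flux, recorded kinetically, defines activity here; cells are a tetracycline-induced HEK293 T-REx line expressing force-coupled D2.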

SMILES | inhibition
COc1ccc2nc(NC(=O)c3cc(=O)c4ccccc4o3)sc2c1 | 10.4%
COc1ccc(NC(=O)Cn2c(=O)n(CCc3ccccc3)c(=O)c3ccccc32)cc1 | -1.69%
Cc1noc(-c2ccc(NCc3ccccc3)c([N+](=O)[O-])c2)n1 | 13.3%
COc1cccc(CNS(=O)(=O)c2cc3c(cc2C)n(C)c(=O)c(=O)n3C)c1 | -2.46%
CCOc1ccc(NC(=O)Cn2nc(-c3ccncc3)ccc2=O)cc1 | 6.12%
CCCCNC(=O)c1c(C)oc2ncn(CC(C)C)c(=O)c12 | -0.787%
O=C(c1cccc(Cl)c1)N1CCN(CCc2ccccn2)CC1 | 5.39%
O=C(NCc1nc2cccnc2n1Cc1ccc(F)cc1)c1ccccc1C(F)(F)F | 15.5%
Cc1ccccc1OCC(=O)Nc1cc(-c2cccc(Br)c2)nn1-c1ccccc1 | 23.5%
Cc1cccc(N2CCN(S(=O)(=O)c3ccc(-c4cnc(C5CC5)o4)cc3)CC2)c1C | 16.9%
COc1ccccc1CNC(=O)CC(c1ccc(F)cc1)N1Cc2ccccc2C1=O (stereo unspecified) | 0.264%
Cc1ccccc1-c1noc(-c2ccc(NCC3CCCO3)c([N+](=O)[O-])c2)n1 (stereo unspecified) | 10.4%
CCOC(=O)c1cccc(NC(=O)C(C)n2nc(C)c3c(C)n(-c4ccccc4)nc3c2=O)c1 (stereo unspecified) | 6.76%
Cc1oc(-c2ccccc2F)nc1CS(=O)(=O)CC(=O)N1CCN(c2ccccc2)CC1 | 20.5%
Cc1ccc([N+](=O)[O-])cc1NC(=O)CN(c1ccccc1)S(=O)(=O)N(C)C | -7.06%
COc1ccc(-c2[nH]c(-c3ccc(O)cc3)nc2-c2ccccc2)cc1 | 16.4%
COC(=O)c1cc(NC(=O)c2cc3c(-c4ccccc4F)nn(C)c3s2)cc(C(=O)OC)c1 | 7.27%
COc1ccc(OC)c(S(=O)(=O)NCC(c2ccc(N(C)C)cc2)N2CCOCC2)c1 (stereo unspecified) | 6.87%
O=C(NCC(c1ccco1)S(=O)(=O)c1cccs1)c1ccccc1 (stereo unspecified) | 3.61%
Cc1c(Cl)cccc1Nc1nn2c(=O)c3ccccc3nc2s1 | -4.98%
COC(=O)c1cc2oc3ccccc3c2n1Cc1ccc(C)cc1 | -1.92%

SMILES | inhibition
CCOC(=O)c1ccc(NC(=O)CN2C(=O)NC3(CCCCCCC3)C2=O)cc1 | active: 38.4%
CCOC(=O)c1cc2c(=O)n3ccccc3nc2n(Cc2ccco2)c1=NC(=O)c1ccccc1Br | -1.54%
CCS(=O)(=O)N1CCc2cc(C(=O)Nc3ccc(Br)cc3F)ccc21 | -15.5%
O=C(COC(=O)c1cc([N+](=O)[O-])ccc1N1CCOCC1)Nc1ccc(Cl)cc1 | active: 41.8%
CC(=O)c1ccc(N2CCN(C(=O)c3cn(C)c(=O)c4c3c3ccccc3n4C)CC2)cc1 | -10.5%
Cc1ccc(-n2c(=O)c3c(c4cc(C)ccc4n3C)n(CC(=O)Nc3ccc(F)cc3)c2=O)cc1 | 3.12%
COc1ccc(CNC(=O)COCc2cc(-c3ccc4c(c3)OCO4)on2)cc1 | -0.158%
CCOC(=O)C1(Cc2cccc(OC)c2)CCN(Cc2cnc(SC)nc2)CC1 | active: 92.7%
CCc1cccc(C)c1NC(=O)c1ccc2c(c1)CCN2S(=O)(=O)c1ccc(Cl)cc1 | -4.55%
CCOc1ccc(C2C(C#N)=C(N)SC(N)=C2C#N)c(OCC)c1 | active: 30.6%
COc1ccc(N(Cc2cccs2)C(=O)c2ccco2)cc1 | 18.3%
CCCCC(=O)Nc1nnc(S(=O)(=O)N(C)Cc2ccc(Cl)cc2)s1 | -1.27%
OCC1(Cc2ccccc2)CCN(C2CCN(c3ccccc3F)CC2)CC1 | active: 47.2%
Cc1cc(C)cc(NC(=O)CCc2c(C)nc3nc(CNC(=O)c4cccc(F)c4)nn3c2C)c1 | -16.7%
COCCCNc1nc2c(c(=O)n(Cc3ccc(F)cc3)c(=O)n2C)n1C | -7.37%
Cc1csc(SCC(=O)Nc2cccc3nsnc23)n1 | active: 32.7%
O=c1cc(COc2ccc(Cl)cc2Cl)nc2scc(-c3ccccc3)n12 | 12.4%
CC(CNC(=O)c1ccc2c(c1)nc1n2CCCCC1)c1ccccc1 (stereo unspecified) | -2.3%
COc1ccccc1OCC(=O)N(Cc1ccco1)Cc1ccccc1F | 11.4%
COc1ccc(-c2cc(C(=O)Nc3cc(Br)ccc3O)no2)cc1 | active: 35.6%
COc1ccccc1-c1nn2c(=O)cc(CN3CCN(C(=O)Nc4ccc(C)cc4Cl)CC3)nc2s1 | -17.2%

SMILES | inhibition
Cc1ccc(C2C(=O)N(C3CCC(C)CC3)CC(=O)N2C2CCCC2)cc1 (stereo unspecified) | 12.5%
Cc1cc(NS(=O)(=O)c2ccc(NC(=O)COc3c(C)ccc(C)c3C)cc2)nc(C)n1 | -10.6%
CCOc1ccc(-n2c(=O)c3c(C)c(C)sc3n(CC(=O)C(C)(C)C)c2=O)cc1 | -14.8%
O=C(CCC(=O)N1CCSc2ccccc21)Nc1ccc(Cl)cc1 | -17%
COc1cccc(CNC(=O)c2cc(-c3ccc(Cl)cc3)n[nH]2)c1 | 10.3%
CCOc1cccc(C(=O)N(Cc2ccc(C)o2)C2CCS(=O)(=O)C2)c1 (stereo unspecified) | 16.7%
O=C(Cn1nc(-c2ccccc2)ccc1=O)NCCN1CCN(c2cccc(Cl)c2)CC1 | active: 63.6%
COc1ccc(CNC(=O)c2ccc3c(c2)N(Cc2cc(C)ccc2C)C(=O)CS3)cc1 | -2.4%
COc1ccc(CNc2nc(-c3ccc(Cl)cc3)nn2S(=O)(=O)c2ccc(C)cc2)cc1 | 0.0989%
COc1ccccc1CNS(=O)(=O)c1cc(Br)cc2c1N(C(=O)C1CC1)CC2 | 4.61%
CN(C)S(=O)(=O)N(CC(=O)Nc1ccc(C(F)(F)F)cc1)c1ccccc1 | 2.96%
CCc1ccc(NC(=O)c2nc3nc(C)cc(C(F)F)n3n2)cc1 | -2.97%
Cc1nc(N2CCOCC2)c2c(C(=O)NCc3ccc(Cl)cc3)c(C)oc2n1 | -6.53%
CC1(C)C(C=C(Cl)Cl)C1C(=O)N1CCN(Cc2ccccc2)CC1 (stereo unspecified) | active: 78%
Cc1ccc(S(=O)(=O)N2CC=C(c3c(C)n(CC(=O)N4CCCC4)c4ccccc34)CC2)cc1C | -16.2%
COc1cc(OC)cc(C(=O)NCCc2csc3nc(-c4ccccc4F)nn23)c1 | -2.68%
Cc1sc(-n2cccc2)c(C(C)NC(=O)Nc2cccc(C(F)(F)F)c2)c1C (stereo unspecified) | 9.84%
CCOC(=O)c1c(C)oc2ccc(N(C(=O)c3ccncc3)S(=O)(=O)c3ccc(CC)cc3)cc12 | -9.82%
C=CCc1ccccc1OCC(O)CN1CCN(Cc2ccc3c(c2)OCO3)CC1 (stereo unspecified) | active: 75% and active: 63.8%
